# The list shows a part of the results. Repeats are few or missing, and single values can be far off.
# Key:
# Experiment in all cases: cell count relative to DMSO control; melanoma cells; higher = more viable cells
# Settings in all cases: library dose: low library concentration; 72 h
# COLO792 = test system: COLO792
# COLO800 = test system: COLO800
# COLO829 = test system: COLO829
# G361 = test system: G361
# IPC-298 = test system: IPC-298
# IST-MEL1 = test system: IST-MEL1
# LOXIMVI = test system: LOXIMVI
# MEL-HO = test system: MEL-HO
# LB2518-MEL = test system: LB2518-MEL
# 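Note: cell number obtained by counting DAPI-stained nuclei in high-throughput microscope images with image analysis software, screen run in 1,536-well plates.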
SMILES,cell count (COLO792) [%],cell count (COLO800) [%],cell count (COLO829) [%],cell count (G361) [%],cell count (IPC-298) [%],cell count (IST-MEL1) [%],cell count (LOXIMVI) [%],cell count (MEL-HO) [%],cell count (LB2518-MEL) [%]
"CC1(C)CCC(c2ccc(Cl)cc2)=C(CN2CCN(c3ccc(C(=O)NS(=O)(=O)c4ccc(N[C@H](CCN5CCOCC5)CSc5ccccc5)c(S(=O)(=O)C(F)(F)F)c4)cc3)CC2)C1 + COc1ccc2c(c1)CCC1C2CCC2(C)C(NCCCCCCN3C(=O)C=CC3=O)CCC12 [U73122] (first compound 0.4 µM, partner dose 0.4 µM)",52.5,68.7,101,83.8,104,76.9,42.9,80.8,–
"O=C(/C=C/c1cccnc1)NCCCCC1CCN(C(=O)c2ccccc2)CC1 + Oc1cc(-c2nc(-c3ccccc3)[nH]c2-c2ccncc2)ccc1Cl [L779450] (first compound 0.01 µM, partner dose 0.2 µM)",58.8,25.8,87,14.1,43.7,80.5,113,48.4,55.9
"O=C(/C=C/c1cccnc1)NCCCCC1CCN(C(=O)c2ccccc2)CC1 + CCN(CC)CCCCNc1ncc2cc(-c3cc(OC)cc(OC)c3)c(NC(=O)NC(C)(C)C)nc2n1 [PD173074] (first compound 0.01 µM, partner dose 0.1 µM)",58.5,47.1,87.1,11.8,52.6,70.5,108,51.9,–
"Cc1ccc(Nc2nccc(N(C)c3ccc4c(C)n(C)nc4c3)n2)cc1S(N)(=O)=O [Pazopanib] + COC(=O)c1sccc1S(=O)(=O)Nc1ccc(Nc2ccccc2)cc1OC [GSK0660] (first compound 0.4 µM, partner dose 1 µM)",116,105,94.7,81.4,74.5,97.5,101,108,98.1
"CC1(C)CCC(c2ccc(Cl)cc2)=C(CN2CCN(c3ccc(C(=O)NS(=O)(=O)c4ccc(N[C@H](CCN5CCOCC5)CSc5ccccc5)c(S(=O)(=O)C(F)(F)F)c4)cc3)CC2)C1 + CN(C)S(=O)(=O)c1ccc2c(c1)/C(=C/c1cc3c([nH]1)CCCC3)C(=O)N2 [SU6656] (first compound 0.4 µM, partner dose 0.4 µM)",54.7,47,105,67.9,94.4,74.1,123,83.8,88.8
"Cc1ccc(Nc2nccc(N(C)c3ccc4c(C)n(C)nc4c3)n2)cc1S(N)(=O)=O [Pazopanib] + OCCn1cc(-c2cnc3nnn(Cc4ccc5ncccc5c4)c3n2)cn1 [PF04217903] (first compound 0.4 µM, partner dose 1 µM)",98.4,116,106,118,78.9,108,107,97.7,80.2
"CC1(C)CCC(c2ccc(Cl)cc2)=C(CN2CCN(c3ccc(C(=O)NS(=O)(=O)c4ccc(N[C@H](CCN5CCOCC5)CSc5ccccc5)c(S(=O)(=O)C(F)(F)F)c4)cc3)CC2)C1 + O=C(CCCCCCC(=O)Nc1ccccc1)NO [vorinostat] (first compound 0.4 µM, partner dose 0.08 µM)",66.8,50.4,114,90.4,101,81.9,48.7,77.6,106
"CC1(C)CCC(c2ccc(Cl)cc2)=C(CN2CCN(c3ccc(C(=O)NS(=O)(=O)c4ccc(N[C@H](CCN5CCOCC5)CSc5ccccc5)c(S(=O)(=O)C(F)(F)F)c4)cc3)CC2)C1 + Cn1cncc1[C@@](N)(c1ccc(Cl)cc1)c1ccc2c(c1)c(-c1cccc(Cl)c1)cc(=O)n2C [tipifarnib] (first compound 0.4 µM, partner dose 0.01 µM)",55.6,64.6,89.8,72.5,89.3,56.8,22.4,70.5,69.3
"Cc1ccc(Nc2nccc(N(C)c3ccc4c(C)n(C)nc4c3)n2)cc1S(N)(=O)=O [Pazopanib] + CCc1ccc(CCOc2ccc(CC3SC(=O)NC3=O)cc2)nc1 [pioglitazone] (first compound 0.4 µM, partner dose 2 µM)",113,76.5,91.5,103,84.1,107,120,104,110
"CC1(C)CCC(c2ccc(Cl)cc2)=C(CN2CCN(c3ccc(C(=O)NS(=O)(=O)c4ccc(N[C@H](CCN5CCOCC5)CSc5ccccc5)c(S(=O)(=O)C(F)(F)F)c4)cc3)CC2)C1 + COc1ccc(COc2ccc(Cc3cnc(N)nc3N)cc2OC)cc1 [GW2580] (first compound 0.4 µM, partner dose 1 µM)",74.8,50,132,93.4,98.8,76.4,32.3,73.8,78.9
"O=C(/C=C/c1cccnc1)NCCCCC1CCN(C(=O)c2ccccc2)CC1 + c1cc(-c2cnn3cc(-c4ccc(OCCN5CCCCC5)cc4)cnc23)ccn1 [Dorsomorphin] (first compound 0.01 µM, partner dose 0.4 µM)",62.5,25.8,89.2,14.3,43.5,77.1,77,62.7,98.9
"O=C(/C=C/c1cccnc1)NCCCCC1CCN(C(=O)c2ccccc2)CC1 + Cn1cncc1[C@@](N)(c1ccc(Cl)cc1)c1ccc2c(c1)c(-c1cccc(Cl)c1)cc(=O)n2C [tipifarnib] (first compound 0.01 µM, partner dose 0.01 µM)",49.1,23.4,74.5,8.31,45.9,66.5,89.7,54.7,62.2
"CC1(C)CCC(c2ccc(Cl)cc2)=C(CN2CCN(c3ccc(C(=O)NS(=O)(=O)c4ccc(N[C@H](CCN5CCOCC5)CSc5ccccc5)c(S(=O)(=O)C(F)(F)F)c4)cc3)CC2)C1 + C=CCn1c(=O)c2cnc(Nc3ccc(N4CCN(C)CC4)cc3)nc2n1-c1cccc(C(C)(C)O)n1 [MK1775] (first compound 0.4 µM, partner dose 0.02 µM)",58.6,68.6,75.9,77.8,97.1,76.8,39.6,68.3,89.6
"CC1(C)CCC(c2ccc(Cl)cc2)=C(CN2CCN(c3ccc(C(=O)NS(=O)(=O)c4ccc(N[C@H](CCN5CCOCC5)CSc5ccccc5)c(S(=O)(=O)C(F)(F)F)c4)cc3)CC2)C1 + O=S(=O)(c1ccccc1)N(CC(F)(F)F)c1ccc(C(O)(C(F)(F)F)C(F)(F)F)cc1 [T0901317] (first compound 0.4 µM, partner dose 1.4 µM)",67.5,83.3,81.3,70.8,90.6,73.2,43.2,89.5,92
"Cc1ccc(Nc2nccc(N(C)c3ccc4c(C)n(C)nc4c3)n2)cc1S(N)(=O)=O [Pazopanib] + COc1ccc2c(c1)CCC1C2CCC2(C)C(NCCCCCCN3C(=O)C=CC3=O)CCC12 [U73122] (first compound 0.4 µM, partner dose 0.4 µM)",96.3,105,113,89,84.6,98.6,91.9,90.4,87.8
"Cc1ccc(Nc2nccc(N(C)c3ccc4c(C)n(C)nc4c3)n2)cc1S(N)(=O)=O [Pazopanib] + Cc1cc([N+](=O)[O-])ccc1NS(=O)(=O)c1cc(Cl)ccc1Cl [FH535] (first compound 0.4 µM, partner dose 1 µM)",97.2,107,99.6,86,73.6,86.7,153,96.5,81.3
"Cc1ccc(Nc2nccc(N(C)c3ccc4c(C)n(C)nc4c3)n2)cc1S(N)(=O)=O [Pazopanib] + COc1cc(N2CCC(N3CCN(C)CC3)CC2)ccc1Nc1ncc(Cl)c(Nc2ccccc2S(=O)(=O)C(C)C)n1 [NVP-TAE684] (first compound 0.4 µM, partner dose 0.08 µM)",93.1,104,85.3,89,89.6,93.4,84.5,82.1,98.2
